From patent publication US20240076343A1 (CEPHALON, published 2024)

T1: high-affinity hIL-2 receptor (IL-2Rαβγ) on NK-92 cells (human, UniProt P01589 22-272; P14784 27-551; P31785 23-369)
T1 sequence 1: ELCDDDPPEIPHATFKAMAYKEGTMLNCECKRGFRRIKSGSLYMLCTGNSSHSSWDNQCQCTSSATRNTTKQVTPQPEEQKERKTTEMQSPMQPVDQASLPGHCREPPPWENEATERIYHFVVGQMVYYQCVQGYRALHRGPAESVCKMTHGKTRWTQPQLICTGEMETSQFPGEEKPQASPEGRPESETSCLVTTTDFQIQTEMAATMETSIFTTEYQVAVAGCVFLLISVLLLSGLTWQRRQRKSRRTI
T1 sequence 2: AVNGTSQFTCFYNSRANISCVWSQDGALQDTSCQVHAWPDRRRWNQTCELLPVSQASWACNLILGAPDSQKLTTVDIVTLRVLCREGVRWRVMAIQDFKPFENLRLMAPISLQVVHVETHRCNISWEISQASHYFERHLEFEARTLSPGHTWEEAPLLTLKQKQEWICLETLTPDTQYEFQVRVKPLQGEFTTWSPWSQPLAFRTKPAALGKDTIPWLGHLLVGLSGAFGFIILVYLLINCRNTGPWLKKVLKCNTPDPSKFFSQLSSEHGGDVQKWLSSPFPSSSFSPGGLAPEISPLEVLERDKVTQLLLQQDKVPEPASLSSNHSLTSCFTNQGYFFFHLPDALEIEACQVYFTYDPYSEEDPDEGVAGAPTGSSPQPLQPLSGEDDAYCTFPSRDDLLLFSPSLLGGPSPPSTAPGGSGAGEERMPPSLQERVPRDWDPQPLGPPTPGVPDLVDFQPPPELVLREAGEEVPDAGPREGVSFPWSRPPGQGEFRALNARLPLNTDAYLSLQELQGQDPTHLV
T1 sequence 3: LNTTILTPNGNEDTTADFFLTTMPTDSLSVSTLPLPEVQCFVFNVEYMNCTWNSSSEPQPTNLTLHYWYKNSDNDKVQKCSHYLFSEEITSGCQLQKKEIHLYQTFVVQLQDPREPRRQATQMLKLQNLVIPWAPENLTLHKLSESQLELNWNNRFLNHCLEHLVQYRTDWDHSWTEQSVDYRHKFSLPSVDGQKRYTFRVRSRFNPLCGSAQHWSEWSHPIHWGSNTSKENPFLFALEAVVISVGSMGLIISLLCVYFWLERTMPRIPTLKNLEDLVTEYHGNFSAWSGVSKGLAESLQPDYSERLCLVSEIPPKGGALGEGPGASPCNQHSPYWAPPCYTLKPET

T2: intermediate affinity hIL-2 receptor complex (IL-2Rβγ) on TF1+IL-2Rβ cells (human, UniProt P14784 27-551; P31785 23-369)
T2 sequence 1: T1 sequence 2
T2 sequence 2: T1 sequence 3

B1: 1H3-hIgG1-L6-hCD25(1-164)-L20-hIL-2 (E15A) (other)
heavy: EVQLVESGGGLVQPGRSLKLSCAVSGFTFSDYAMAWVRQAPKKGLEWVATISYDGSRTYYRDSVKGRFTISRDNAKITLYLQMDSLRSEDTATYYCARHGSGYFDYWGQGVMVTVSS[not shown - human IgG1 constant region]SGGGGSELCDDDPPEIPHATFKAMAYKEGTMLNCECKRGFRRIKSGSLYMLCTGNSSHSSWDNQCQCTSSATRNTTKQVTPQPEEQKERKTTEMQSPMQPVDQASLPGHCREPPPWENEATERIYHFVVGQMVYYQCVQGYRALHRGPAESVCKMTHGKTRWTQPQLICTSGGGGSGGGGSGGGGSGGGS[not shown - about 150 residues]
light: DTVLTQSPALAVSPGERVTISCRASESVRTGVHWYQQKPGQQPKLLIYGASNLESGVPARFSGSGSGTDFTLTIDPVEADDTATYFCQQSWNDPFTFGSGTKLEIKRTVAAPSVFIFPPSDEQLKSGTASVVCLLNNFYPREAKVQWKVDNALQSGNSQESVTEQDSKDSTYSLSSTLTLSKADYEKHKVYACEVTHQGLSSPVTKSFNRGEC
B2: 1H3-hIgG1-L6-hCD25(1-164)-L20-hIL-2 (D20I) (other)
heavy: EVQLVESGGGLVQPGRSLKLSCAVSGFTFSDYAMAWVRQAPKKGLEWVATISYDGSRTYYRDSVKGRFTISRDNAKITLYLQMDSLRSEDTATYYCARHGSGYFDYWGQGVMVTVSS[not shown - human IgG1 constant region]SGGGGSELCDDDPPEIPHATFKAMAYKEGTMLNCECKRGFRRIKSGSLYMLCTGNSSHSSWDNQCQCTSSATRNTTKQVTPQPEEQKERKTTEMQSPMQPVDQASLPGHCREPPPWENEATERIYHFVVGQMVYYQCVQGYRALHRGPAESVCKMTHGKTRWTQPQLICTSGGGGSGGGGSGGGGSGGGS[not shown - about 150 residues]
light: B1 light
B3: 1H3-hIgG1-L6-hCD25(1-164)-L20-hIL-2 (D20H) (other)
heavy: EVQLVESGGGLVQPGRSLKLSCAVSGFTFSDYAMAWVRQAPKKGLEWVATISYDGSRTYYRDSVKGRFTISRDNAKITLYLQMDSLRSEDTATYYCARHGSGYFDYWGQGVMVTVSS[not shown - human IgG1 constant region]SGGGGSELCDDDPPEIPHATFKAMAYKEGTMLNCECKRGFRRIKSGSLYMLCTGNSSHSSWDNQCQCTSSATRNTTKQVTPQPEEQKERKTTEMQSPMQPVDQASLPGHCREPPPWENEATERIYHFVVGQMVYYQCVQGYRALHRGPAESVCKMTHGKTRWTQPQLICTSGGGGSGGGGSGGGGSGGGS[not shown - about 150 residues]
light: B1 light
B4: 1H3-hIgG1-L6-hCD25(1-164)-L20-hIL-2 (D20W) (other)
heavy: EVQLVESGGGLVQPGRSLKLSCAVSGFTFSDYAMAWVRQAPKKGLEWVATISYDGSRTYYRDSVKGRFTISRDNAKITLYLQMDSLRSEDTATYYCARHGSGYFDYWGQGVMVTVSS[not shown - human IgG1 constant region]SGGGGSELCDDDPPEIPHATFKAMAYKEGTMLNCECKRGFRRIKSGSLYMLCTGNSSHSSWDNQCQCTSSATRNTTKQVTPQPEEQKERKTTEMQSPMQPVDQASLPGHCREPPPWENEATERIYHFVVGQMVYYQCVQGYRALHRGPAESVCKMTHGKTRWTQPQLICTSGGGGSGGGGSGGGGSGGGS[not shown - about 150 residues]
light: B1 light
B5: 1H3-hIgG1-L6-hCD25(1-164)-L20-hIL-2 (D20Y) (other)
heavy: EVQLVESGGGLVQPGRSLKLSCAVSGFTFSDYAMAWVRQAPKKGLEWVATISYDGSRTYYRDSVKGRFTISRDNAKITLYLQMDSLRSEDTATYYCARHGSGYFDYWGQGVMVTVSS[not shown - human IgG1 constant region]SGGGGSELCDDDPPEIPHATFKAMAYKEGTMLNCECKRGFRRIKSGSLYMLCTGNSSHSSWDNQCQCTSSATRNTTKQVTPQPEEQKERKTTEMQSPMQPVDQASLPGHCREPPPWENEATERIYHFVVGQMVYYQCVQGYRALHRGPAESVCKMTHGKTRWTQPQLICTSGGGGSGGGGSGGGGSGGGS[not shown - about 150 residues]
light: B1 light
B6: 1H3-hIgG1-L6-hCD25(1-164)-L20-hIL-2 (D20R) (other)
heavy: EVQLVESGGGLVQPGRSLKLSCAVSGFTFSDYAMAWVRQAPKKGLEWVATISYDGSRTYYRDSVKGRFTISRDNAKITLYLQMDSLRSEDTATYYCARHGSGYFDYWGQGVMVTVSS[not shown - human IgG1 constant region]SGGGGSELCDDDPPEIPHATFKAMAYKEGTMLNCECKRGFRRIKSGSLYMLCTGNSSHSSWDNQCQCTSSATRNTTKQVTPQPEEQKERKTTEMQSPMQPVDQASLPGHCREPPPWENEATERIYHFVVGQMVYYQCVQGYRALHRGPAESVCKMTHGKTRWTQPQLICTSGGGGSGGGGSGGGGSGGGS[not shown - about 150 residues]
light: B1 light

target: T1, high-affinity hIL-2 receptor (IL-2Rαβγ) …; test: cell-based or functional assay

Going from B1 to B2, the “Fold change from hIL-2 (NK-92)” value rises from 17 fold to 21 fold.

Going from B3 to B4, the “Fold change from hIL-2 (NK-92)” value rises from 22 fold to 23 fold.

B5 and B6 are the same in “Fold change from hIL-2 (NK-92)” value: 23 fold for the first, 23 fold for the second.

target: T2, intermediate affinity hIL-2 receptor …; test: cell-based or functional assay

Compared with B1, B2 is higher in “Fold change from hIL-2 (TF1 + IL-2Rβ)” value: 1 fold for the first, 15 fold for the second.

B3 and B4 are the same in “Fold change from hIL-2 (TF1 + IL-2Rβ)” value: 15 fold for the first, 15 fold for the second.

B5 and B6 are the same in “Fold change from hIL-2 (TF1 + IL-2Rβ)” value: 16 fold for the first, 16 fold for the second.
